Results published in patent publication US12577227B2, “WDR5 inhibitors and modulators” (Vanderbilt University, priority 2019, dated 2026).

Target: WDR5 (Homo sapiens, UniProt P61964)
Assay: TR-FRET competition assay (MLL peptide binding, displacement of 10mer-Thr-FAM probe)
Conditions: WDR5-His tag (Δ23, residues 24-334) 2 nM; 10mer-Thr-FAM 150 nM; Tb-anti-HIS 1 nM; 60 minutes room temperature; pH 7.2; read-out: Ki for Inhibition of WDR5 by TR-FRET assay

Q: Which Ki does the source give for `COc1ccc2nc(C)cc(N3CCOc4c(cc(Cn5ccnc5)cc4-c4cn(C)nc4C(F)(F)F)C3=O)c2c1` [Example 68, 7-((1H-imidazol-1-yl)methyl)-4-(6-methoxy-2-methylquinolin-4-yl)-9-(1-methyl-3-(trifluoromethyl)-1H-pyrazol-4-yl)-3,4-dihydrobenzo[f][1,4]oxazepin-5(2H)-one] here?
A: < 0.05 nM

Q: Which Ki does the source give for `CCn1cc(-c2cc(Cn3ccnc3)cc3c2OCCN([C@H](c2cc(OC)ccn2)C2CC2)C3=O)c(C(F)(F)F)n1` [Example 59, (S)-7-((1H-Imidazol-1-yl)methyl)-4-(cyclopropyl(4-methoxypyridin-2-yl)methyl)-9-(1-ethyl-3-(trifluoromethyl)-1H-pyrazol-4-yl)-3,4-dihydrobenzo[f][1,4]oxazepin-5(2H)-one] here?
A: < 0.05 nM

Q: For `CCc1cc(C(=O)NCCOC)c2nccc(N3CCOc4c(cc(Cn5ccnc5)cc4-c4cn(C)nc4C(F)(F)F)C3=O)c2c1` [Example 74, 4-(7-((1H-imidazol-1-yl)methyl)-9-(1-methyl-3-(trifluoromethyl)-1H-pyrazol-4-yl)-5-oxo-2,3-dihydrobenzo[f][1,4]oxazepin-4(5H)-yl)-6-ethyl-N-(2-methoxyethyl)quinoline-8-carboxamide], which Ki is on record?
A: 0.053 nM

Q: With `COc1cc(CN2CCOc3c(cc(Cn4ccn(C)c4=N)cc3-c3ccc(F)cc3C)C2=O)cc(OC)c1` [Example 3, 4-(3,5-Dimethoxybenzyl)-9-(4-fluoro-2-methylphenyl)-7-((2-imino-3-methyl-2,3-dihydro-1H-imidazol-1-yl)methyl)-3,4-dihydrobenzo[f][1,4]oxazepin-5(2H)-one] as the compound, how does the Ki read?
A: < 0.05 nM

Q: `CCn1cc(-c2cc(Cn3ccnc3C)cc3c2OCCN([C@H]2CCOc4ccc(OC)cc42)C3=O)c(C(F)(F)F)n1` [Example 64, (S)-9-(1-ethyl-3-(trifluoromethyl)-1H-pyrazol-4-yl)-4-(6-methoxychroman-4-yl)-7-((2-methyl-1H-imidazol-1-yl)methyl)-3,4-dihydrobenzo[f][1,4]oxazepin-5(2H)-one] was tested. Which Ki did it give?
A: < 0.05 nM

Q: How did the Ki turn out when `COc1cc(CN2CCOc3c(cc(Cn4ccn(C)c4=N)cc3-c3cn(C)nc3C(F)(F)F)C2=O)cc(OC)c1` [Example 16, 4-(3,5-Dimethoxybenzyl)-7-((2-imino-3-methyl-2,3-dihydro-1H-imidazol-1-yl)methyl)-9-(1-methyl-3-(trifluoromethyl)-1H-pyrazol-4-yl)-3,4-dihydrobenzo[f][1,4]oxazepin-5(2H)-one] was run?
A: < 0.05 nM

Q: Which Ki does the source give for `COc1cc(CN2CCNc3c(cc(Cn4ccn(C)c4=N)cc3-c3ccc(F)cc3C)C2=O)cc(OC)c1` [Example 29, 4-(3,5-Dimethoxybenzyl)-9-(4-fluoro-2-methylphenyl)-7-((2-imino-3-methyl-2,3-dihydro-1H-imidazol-1-yl)methyl)-1,2,3,4-tetrahydro-5H-benzo[e][1,4]diazepin-5-one] here?
A: 0.055 nM

Q: Which Ki does the source give for `Cc1ccnc(CN2CCOc3c(cc(Cn4ccnc4C)cc3-c3ccc(F)cc3C)C2=O)c1` [Example 25, 9-(4-Fluoro-2-methylphenyl)-7-((2-methyl-1H-imidazol-1-yl)methyl)-4-((4-methylpyridin-2-yl)methyl)-3,4-dihydrobenzo[f][1,4]oxazepin-5(2H)-one] here?
A: 0.081 nM

Q: How did the Ki turn out when `COc1ccnc(Cn2cnc3c(-c4cn(C)nc4C(F)(F)F)cc(Cn4ccnc4C)cc3c2=O)c1` [Example 55, 3-((4-Methoxypyridin-2-yl)methyl)-6-((2-methyl-1H-imidazol-1-yl)methyl)-8-(1-methyl-3-(trifluoromethyl)-1H-pyrazol-4-yl)quinazolin-4(3H)-one] was run?
A: 0.12 nM

Q: For `Cn1cc(-c2cc(Cn3ccn(C)c3=N)cc3c(=O)n(-c4ccccc4-c4ccccc4)cnc23)c(C(F)(F)F)n1` [Example 24, 3-([1,1′-Biphenyl]-2-yl)-6-((2-imino-3-methyl-2,3-dihydro-1H-imidazol-1-yl)methyl)-8-(1-methyl-3-(trifluoromethyl)-1H-pyrazol-4-yl)quinazolin-4(3H)-one], which Ki is on record?
A: 0.61 nM

Q: How did the Ki turn out when `Cc1cc(C)nc(CN2CCOc3c(cc(Cn4cnn(C)c4=N)cc3-c3cn(C)nc3C(F)(F)F)C2=O)c1` [Example 31, 4-((4,6-dimethylpyridin-2-yl)methyl)-7-((5-imino-1-methyl-1,5-dihydro-4H-1,2,4-triazol-4-yl)methyl)-9-(1-methyl-3-(trifluoromethyl)-1H-pyrazol-4-yl)-3,4-dihydrobenzo[f][1,4]oxazepin-5(2H)-one] was run?
A: < 0.05 nM

Q: How did the Ki turn out when `COc1cc(CN2C[C@@H](C)Oc3c(cc(Cn4ccnc4C)cc3-c3ccc(F)cc3C)C2=O)cc(OC)c1` [Example 34, (R)-4-(3,5-Dimethoxybenzyl)-9-(4-fluoro-2-methylphenyl)-2-methyl-7-((2-methyl-1H-imidazol-1-yl)methyl)-3,4-dihydrobenzo[f][1,4]oxazepin-5(2H)-one] was run?
A: < 0.05 nM

Q: For `COc1ccnc([C@H](C)N2CCOc3c(cc(Cn4ccnc4C)cc3-c3ccc(F)cc3C)C2=O)c1` [Example 50, (S)-9-(4-Fluoro-2-methylphenyl)-4-(1-(4-methoxypyridin-2-yl)ethyl)-7-((2-methyl-1H-imidazol-1-yl)methyl)-3,4-dihydrobenzo[f][1,4]oxazepin-5(2H)-one], which Ki is on record?
A: < 0.05 nM

Q: Which Ki does the source give for `Cc1cc(C)nc(CN2CCOc3c(cc(Cn4ccnc4C)cc3-c3cn(C)nc3C(F)(F)F)C2=O)c1` [Example 26, 4-((4,6-Dimethylpyridin-2-yl)methyl)-7-((2-methyl-1H-imidazol-1-yl)methyl)-9-(1-methyl-3-(trifluoromethyl)-1H-pyrazol-4-yl)-3,4-dihydrobenzo[f][1,4]oxazepin-5(2H)-one] here?
A: < 0.05 nM

Q: `COc1cc(CN2CNc3c(cc(Cn4ccn(C)c4=N)cc3-c3ccc(F)cc3C)C2=O)cc(OC)c1` [Example 23, 3-(3,5-Dimethoxybenzyl)-8-(4-fluoro-2-methylphenyl)-6-((2-imino-3-methyl-2,3-dihydro-1H-imidazol-1-yl)methyl)-2,3-dihydroquinazolin-4(1H)-one] was tested. Which Ki did it give?
A: < 0.05 nM

Q: With `COc1cnc2cccc(N3CCOc4c(cc(Cn5ccnc5)cc4-c4cn(C)nc4C(F)(F)F)C3=O)c2c1` [Example 70, 7-((1H-imidazol-1-yl)methyl)-4-(3-methoxyquinolin-5-yl)-9-(1-methyl-3-(trifluoromethyl)-1H-pyrazol-4-yl)-3,4-dihydrobenzo[f][1,4]oxazepin-5(2H)-one] as the compound, how does the Ki read?
A: < 0.05 nM

Q: For `CCc1cc(C(=O)NC)c2nccc(N3CCOc4c(cc(Cn5ccnc5)cc4-c4cn(C)nc4C(F)(F)F)C3=O)c2c1` [Example 72, 4-(7-((1H-imidazol-1-yl)methyl)-9-(1-methyl-3-(trifluoromethyl)-1H-pyrazol-4-yl)-5-oxo-2,3-dihydrobenzo[f][1,4]oxazepin-4(5H)-yl)-6-ethyl-N-methylquinoline-8-carboxamide], which Ki is on record?
A: 0.064 nM

Q: For `COc1ccnc([C@H](C)N2CCOc3c(cc(Cn4ccnc4C)cc3-c3cc(C)ccc3C)C2=O)c1` [Example 56, (S)-9-(2,5-Dimethylphenyl)-4-(1-(4-methoxypyridin-2-yl)ethyl)-7-((2-methyl-1H-imidazol-1-yl)methyl)-3,4-dihydrobenzo[f][1,4]oxazepin-5(2H)-one], which Ki is on record?
A: < 0.05 nM

Q: `COc1ccnc([C@H](C)N2CCOc3c(cc(Cn4ccnc4C)cc3-c3cn(C)nc3C(F)(F)F)C2=O)c1` [Example 47, (S)-4-(1-(4-Methoxypyridin-2-yl)ethyl)-7-((2-methyl-1H-imidazol-1-yl)methyl)-9-(1-methyl-3-(trifluoromethyl)-1H-pyrazol-4-yl)-3,4-dihydrobenzo[f][1,4]oxazepin-5(2H)-one] was tested. Which Ki did it give?
A: < 0.05 nM
